Measurements from ChEMBL document CHEMBL1961873, “Compounds: GSK PKIS; Assays: Nanosyn kinase panel” (2012).
The list shows a part of the results, in another mix than the full data.

These molecules were tested against Activated CDC42 kinase 1 (Homo sapiens) (UniProt Q07912). Conditions: at 0.1 µM.
Sequence of UniProt Q07912 (Q07912 whole entry, looked up): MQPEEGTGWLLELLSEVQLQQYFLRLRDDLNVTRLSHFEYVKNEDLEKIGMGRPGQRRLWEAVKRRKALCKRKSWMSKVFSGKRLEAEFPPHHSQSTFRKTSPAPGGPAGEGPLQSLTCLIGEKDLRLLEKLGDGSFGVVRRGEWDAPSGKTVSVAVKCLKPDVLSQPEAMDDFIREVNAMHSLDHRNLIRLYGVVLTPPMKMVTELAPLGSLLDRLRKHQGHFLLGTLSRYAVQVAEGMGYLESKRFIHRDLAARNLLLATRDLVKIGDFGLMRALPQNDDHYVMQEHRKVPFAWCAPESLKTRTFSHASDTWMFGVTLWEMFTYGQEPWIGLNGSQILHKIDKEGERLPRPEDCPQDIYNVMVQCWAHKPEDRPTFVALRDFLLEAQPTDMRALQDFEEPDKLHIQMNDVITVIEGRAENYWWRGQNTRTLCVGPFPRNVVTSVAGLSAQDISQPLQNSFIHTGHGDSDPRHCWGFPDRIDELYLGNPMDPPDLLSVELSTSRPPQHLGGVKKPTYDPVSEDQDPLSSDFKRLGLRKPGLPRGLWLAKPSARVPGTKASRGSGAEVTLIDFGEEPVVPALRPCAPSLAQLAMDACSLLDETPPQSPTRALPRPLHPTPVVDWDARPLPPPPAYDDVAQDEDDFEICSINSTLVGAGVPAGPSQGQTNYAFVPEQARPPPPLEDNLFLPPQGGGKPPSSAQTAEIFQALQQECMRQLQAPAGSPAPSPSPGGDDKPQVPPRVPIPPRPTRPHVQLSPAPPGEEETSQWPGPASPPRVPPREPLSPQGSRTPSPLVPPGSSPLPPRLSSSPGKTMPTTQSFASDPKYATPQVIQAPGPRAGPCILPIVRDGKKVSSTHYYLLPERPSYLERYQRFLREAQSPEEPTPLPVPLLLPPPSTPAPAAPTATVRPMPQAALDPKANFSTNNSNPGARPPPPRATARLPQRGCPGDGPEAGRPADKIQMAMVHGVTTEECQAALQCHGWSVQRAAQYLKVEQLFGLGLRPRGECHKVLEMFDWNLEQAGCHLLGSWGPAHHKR

Question: For `Cc1cccc(Oc2nccc(-c3c(-c4ccc(F)cc4)ncn3C3CCNCC3)n2)c1C`, which inhibition is on record?
Answer: 0.55%

Question: `Fc1ccc(-c2ncn(C3CCNCC3)c2-c2ccnc(Oc3cccc(F)c3)n2)cc1` was tested. Which inhibition did it give?
Answer: 1.1%

Question: Which inhibition does the source give for `O=C(O)c1ccc(Oc2nccc(-c3c(-c4ccc(F)cc4)ncn3C3CCNCC3)n2)cc1` here?
Answer: 0.73%

Question: For `Fc1ccc(-c2ncn(C3CCNCC3)c2-c2ccnc(Oc3cccc(C(F)(F)F)c3)n2)cc1`, which inhibition is on record?
Answer: 1.79%

Question: For `CC(C)(C)c1ccc(Oc2nccc(-c3c(-c4ccc(F)cc4)ncn3C3CCNCC3)n2)cc1`, which inhibition is on record?
Answer: 1.3%

Question: Which inhibition does the source give for `COc1ccccc1Oc1nccc(-c2c(-c3ccc(F)cc3)ncn2C2CCNCC2)n1` here?
Answer: 0.69%

Question: How did the inhibition turn out when `O=C1NC(=O)C(c2cccc([N+](=O)[O-])c2)=C1Nc1cc(Cl)c(O)c(Cl)c1` was run?
Answer: -0.27%

Question: Which inhibition does the source give for `Fc1ccc(Oc2nccc(-c3c(-c4ccc(F)cc4)ncn3C3CCNCC3)n2)cc1` here?
Answer: -0.14%

Question: For `O=C1NC(=O)C(c2ccccc2)=C1Nc1ccccc1`, which inhibition is on record?
Answer: 1.47%

Question: How did the inhibition turn out when `COc1ccccc1C1=C(Nc2ccccc2)C(=O)NC1=O` was run?
Answer: 1.03%

Question: Which inhibition does the source give for `Fc1ccc(-c2ncn(C3CCNCC3)c2-c2ccnc(Oc3ccc(Cl)cc3)n2)cc1` here?
Answer: 0.23%

Question: With `CS(=O)(=O)c1ccc(Oc2nccc(-c3c(-c4ccc(F)cc4)ncn3C3CCNCC3)n2)cc1` as the molecule, how does the inhibition read?
Answer: 1.09%

Question: For `O=C1NC(=O)C(c2ccccc2Cl)=C1Nc1cc(Cl)c(O)c(Cl)c1`, which inhibition is on record?
Answer: 1.56%

Question: Which inhibition does the source give for `NC(=O)CCc1ccccc1Oc1nccc(-c2c(-c3ccc(F)cc3)ncn2C2CCNCC2)n1` here?
Answer: 0.03%

What follows are molecules tested against Activated CDC42 kinase 1 (Homo sapiens) (UniProt Q07912). Conditions: at 1 µM.

Question: How did the inhibition turn out when `Cc1cccc(Oc2nccc(-c3c(-c4ccc(F)cc4)ncn3C3CCNCC3)n2)c1C` was run?
Answer: 1.36%

Question: For `Fc1ccc(-c2ncn(C3CCNCC3)c2-c2ccnc(Oc3cccc(F)c3)n2)cc1`, which inhibition is on record?
Answer: 2.89%

Question: For `O=C(O)c1ccc(Oc2nccc(-c3c(-c4ccc(F)cc4)ncn3C3CCNCC3)n2)cc1`, which inhibition is on record?
Answer: 0.31%

Question: How did the inhibition turn out when `Fc1ccc(-c2ncn(C3CCNCC3)c2-c2ccnc(Oc3cccc(C(F)(F)F)c3)n2)cc1` was run?
Answer: 1.64%

Question: For `CC(C)(C)c1ccc(Oc2nccc(-c3c(-c4ccc(F)cc4)ncn3C3CCNCC3)n2)cc1`, which inhibition is on record?
Answer: 1.57%

Question: `COc1ccccc1Oc1nccc(-c2c(-c3ccc(F)cc3)ncn2C2CCNCC2)n1` was tested. Which inhibition did it give?
Answer: 1.57%

Question: `O=C1NC(=O)C(c2cccc([N+](=O)[O-])c2)=C1Nc1cc(Cl)c(O)c(Cl)c1` was tested. Which inhibition did it give?
Answer: -0.08%

Question: For `Fc1ccc(Oc2nccc(-c3c(-c4ccc(F)cc4)ncn3C3CCNCC3)n2)cc1`, which inhibition is on record?
Answer: 0.27%

Question: `O=C1NC(=O)C(c2ccccc2)=C1Nc1ccccc1` was tested. Which inhibition did it give?
Answer: 3.13%

Question: For `COc1ccccc1C1=C(Nc2ccccc2)C(=O)NC1=O`, which inhibition is on record?
Answer: 3.97%

Question: For `Fc1ccc(-c2ncn(C3CCNCC3)c2-c2ccnc(Oc3ccc(Cl)cc3)n2)cc1`, which inhibition is on record?
Answer: 0.56%

Question: How did the inhibition turn out when `CS(=O)(=O)c1ccc(Oc2nccc(-c3c(-c4ccc(F)cc4)ncn3C3CCNCC3)n2)cc1` was run?
Answer: 1.75%

Question: `O=C1NC(=O)C(c2ccccc2Cl)=C1Nc1cc(Cl)c(O)c(Cl)c1` was tested. Which inhibition did it give?
Answer: 2.62%

Question: For `NC(=O)CCc1ccccc1Oc1nccc(-c2c(-c3ccc(F)cc3)ncn2C2CCNCC2)n1`, which inhibition is on record?
Answer: -0.73%

What follows are molecules tested against High affinity nerve growth factor receptor (Homo sapiens) (UniProt P04629). Conditions: at 0.1 µM.
Sequence of UniProt P04629 (P04629 whole entry, looked up): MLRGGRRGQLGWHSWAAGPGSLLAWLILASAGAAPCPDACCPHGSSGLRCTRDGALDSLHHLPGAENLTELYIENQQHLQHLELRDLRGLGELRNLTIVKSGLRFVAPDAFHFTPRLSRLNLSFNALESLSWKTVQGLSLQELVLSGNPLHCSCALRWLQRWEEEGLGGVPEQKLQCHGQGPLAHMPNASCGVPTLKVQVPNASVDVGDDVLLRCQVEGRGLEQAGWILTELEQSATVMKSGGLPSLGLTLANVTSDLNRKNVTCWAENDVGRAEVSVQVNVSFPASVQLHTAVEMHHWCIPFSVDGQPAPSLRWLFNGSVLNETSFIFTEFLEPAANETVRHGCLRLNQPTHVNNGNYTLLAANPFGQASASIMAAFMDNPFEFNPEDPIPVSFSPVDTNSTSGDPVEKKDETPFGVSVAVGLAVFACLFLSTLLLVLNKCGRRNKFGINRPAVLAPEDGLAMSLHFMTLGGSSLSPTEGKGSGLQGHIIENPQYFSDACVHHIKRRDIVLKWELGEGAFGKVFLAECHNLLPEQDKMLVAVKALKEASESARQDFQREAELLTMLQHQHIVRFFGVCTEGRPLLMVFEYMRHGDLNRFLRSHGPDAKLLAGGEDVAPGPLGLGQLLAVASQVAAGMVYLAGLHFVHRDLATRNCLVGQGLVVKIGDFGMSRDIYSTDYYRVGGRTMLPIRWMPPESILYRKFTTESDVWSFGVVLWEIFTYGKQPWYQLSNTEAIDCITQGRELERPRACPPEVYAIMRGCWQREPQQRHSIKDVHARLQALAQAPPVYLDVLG

Question: Which inhibition does the source give for `Cc1cccc(Oc2nccc(-c3c(-c4ccc(F)cc4)ncn3C3CCNCC3)n2)c1C` here?
Answer: 2.94%

Question: Which inhibition does the source give for `Fc1ccc(-c2ncn(C3CCNCC3)c2-c2ccnc(Oc3cccc(F)c3)n2)cc1` here?
Answer: 1.59%

Question: For `O=C(O)c1ccc(Oc2nccc(-c3c(-c4ccc(F)cc4)ncn3C3CCNCC3)n2)cc1`, which inhibition is on record?
Answer: 2.34%

Question: Which inhibition does the source give for `Fc1ccc(-c2ncn(C3CCNCC3)c2-c2ccnc(Oc3cccc(C(F)(F)F)c3)n2)cc1` here?
Answer: 2.69%

Question: Which inhibition does the source give for `CC(C)(C)c1ccc(Oc2nccc(-c3c(-c4ccc(F)cc4)ncn3C3CCNCC3)n2)cc1` here?
Answer: 4.18%

Question: `COc1ccccc1Oc1nccc(-c2c(-c3ccc(F)cc3)ncn2C2CCNCC2)n1` was tested. Which inhibition did it give?
Answer: 0.19%

Question: For `O=C1NC(=O)C(c2cccc([N+](=O)[O-])c2)=C1Nc1cc(Cl)c(O)c(Cl)c1`, which inhibition is on record?
Answer: -0.82%

Question: With `Fc1ccc(Oc2nccc(-c3c(-c4ccc(F)cc4)ncn3C3CCNCC3)n2)cc1` as the molecule, how does the inhibition read?
Answer: 2.73%

Question: Which inhibition does the source give for `O=C1NC(=O)C(c2ccccc2)=C1Nc1ccccc1` here?
Answer: 4.65%

Question: Which inhibition does the source give for `COc1ccccc1C1=C(Nc2ccccc2)C(=O)NC1=O` here?
Answer: 5.65%

Question: How did the inhibition turn out when `Fc1ccc(-c2ncn(C3CCNCC3)c2-c2ccnc(Oc3ccc(Cl)cc3)n2)cc1` was run?
Answer: 1.77%

Question: How did the inhibition turn out when `CS(=O)(=O)c1ccc(Oc2nccc(-c3c(-c4ccc(F)cc4)ncn3C3CCNCC3)n2)cc1` was run?
Answer: 1.21%

Question: How did the inhibition turn out when `O=C1NC(=O)C(c2ccccc2Cl)=C1Nc1cc(Cl)c(O)c(Cl)c1` was run?
Answer: 3.35%

Question: Which inhibition does the source give for `NC(=O)CCc1ccccc1Oc1nccc(-c2c(-c3ccc(F)cc3)ncn2C2CCNCC2)n1` here?
Answer: 0%
